# “And” between values parts separate entries of the source, which are not always exact repeats. Equal values may be shown once. The whole screen tested about 340,000 compounds, of which about 6,900 (2%) were called active. Cut-off read from the data, not from the text of the source: active = inhibition above about 30%; inactive = below that, where a call was filed. This is a selection; strong and weak results do not stand in their true shares. Where no call is shown, the source filed none.
# Biological target: D(2) dopamine receptor (Homo sapiens) (UniProt P14416)
# Chain of UniProt P14416 (P14416 whole entry, looked up): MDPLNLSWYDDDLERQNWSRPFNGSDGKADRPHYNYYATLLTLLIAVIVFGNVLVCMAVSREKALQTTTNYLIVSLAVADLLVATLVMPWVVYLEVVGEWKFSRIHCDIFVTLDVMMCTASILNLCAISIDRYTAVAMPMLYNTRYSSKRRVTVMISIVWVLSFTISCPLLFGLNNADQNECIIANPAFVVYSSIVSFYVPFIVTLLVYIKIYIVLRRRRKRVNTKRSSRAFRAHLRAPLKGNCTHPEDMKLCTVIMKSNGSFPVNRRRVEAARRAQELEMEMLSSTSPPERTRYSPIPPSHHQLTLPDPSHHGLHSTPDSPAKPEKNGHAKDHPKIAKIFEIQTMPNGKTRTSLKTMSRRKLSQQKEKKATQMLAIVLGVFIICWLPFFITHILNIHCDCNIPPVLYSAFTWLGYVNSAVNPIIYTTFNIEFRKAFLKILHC
# Assay: HTS Assay for Allosteric Antagonists of the Human D2 Dopamine Receptor: Primary Screen for Antagonists; note: 0% is about no effect
# Details: HEK293 TREx D2 cells, calcium flux, dopamine EC80; at 10 µM; stronger effect = higher value
# Outline: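 Antagonism is scored as inhibition of an EC80 dopamine-evoked calcium signal in a force-coupled, tetracycline-inducible HEK293 T-REx D2 line, with compound present 180 s before agonist.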
row,Structure (SMILES),inhibition
1,Cc1ccccc1NC(=O)Cn1cc(C(=O)c2ccco2)c2ccccc21,2.35%
2,CCCN1CN(Cc2ccco2)c2nc3ccccc3n2C1,active: 42.7%
3,O=C(NCCc1ccccc1)c1ccc(CS(=O)Cc2ccc(Cl)cc2)o1 (stereo not given),10.3%
4,COc1ccc(C(=O)c2c(N)c(-c3nc(-c4ccc5c(c4)OCO5)cs3)c3ccccn23)cc1,4.24%
5,Cc1cc(NC(=O)CCc2nc3cccnc3n2-c2ccccc2)ccc1Br,-13.4%
6,CCOC(=O)c1ccc(NC(=O)Cn2nc3c4ccccc4n(Cc4cccc(F)c4)cc-3c2=O)cc1,6.59%
7,O=C(CCn1c(=O)c2sccc2n(Cc2ccccc2F)c1=O)NCc1ccc2c(c1)OCO2,12.3%
8,Cc1cccc(NC(=O)Cn2nc(-c3ccccc3)c3cnc4ccccc4c32)c1,2.13%
9,CCOc1ccc(-n2cc(-c3ccccc3)c3c(NCCc4ccccc4)ncnc32)cc1,4.1%
10,Cc1ccc(Nc2ccc3cc(S(=O)(=O)N4CCC(C)CC4)ccc3n2)c(Cl)c1,2.93%
11,CCc1cccc(NC(=O)CCn2c(=O)c3cccn3c3cccnc32)c1,1.77%
12,CCOC(=O)N1CCc2c(sc3c2c(=O)n(Cc2ccccc2)c(=O)n3CC(=O)Nc2cccc(CC)c2)C1,-10.5%
13,CCc1ccc2nc(N(Cc3cccnc3)C(=O)c3ccc(C#N)cc3)sc2c1,4.15%
14,Cc1ccc(N2CCN(C(=O)c3nn(C)c4c3CS(=O)(=O)c3ccccc3-4)CC2)c(C)c1,16.5%
15,CC(=O)Nc1ccc(NC(=O)c2oc3c(c2C)-c2nn(Cc4ccccc4Cl)cc2CC3)cc1,-8.09%
16,CCCCC(=O)Nc1ccc2nc(SCC(=O)N3CCc4ccccc43)sc2c1,11.2%
17,COc1cc(SC)ccc1C(=O)Nc1ccc(S(=O)(=O)Nc2nccc(C)n2)cc1,14.4%
18,COc1cccc(N2CCN(C(=O)c3ccc(C)c(NC(=O)c4nsc5ccccc45)c3)CC2)c1,-8.37%
19,Cc1ccc(C(c2sc3nc(-c4ccco4)nn3c2O)N2CCCC2)cc1 (stereo not given),10.3%
20,Cc1ccc(N(CC(=O)NCCc2ccc(Cl)cc2)S(=O)(=O)c2c(C)noc2C)cc1,-2.29%

row,Structure (SMILES),inhibition
1,COc1ccc(CN2CCc3c(c(=O)n4ncc(C(=O)N5CCN(c6ccccc6OC)CC5)c4n3C)C2)cc1,5.26%
2,Cc1cccc(NC(=O)Cn2nnc(-c3nc(-c4ccncc4)no3)c2N)c1,6%
3,COc1c(O)cc2oc(-c3ccc(O)c(O)c3)cc(=O)c2c1O,active: 36.2%
4,Cc1ccc(NC(=O)CN2C(=O)c3ccccc3Sc3ccc(C(=O)N4CCOCC4)cc32)cc1F,-6.3%
5,COc1ccc(NC(=O)CN2C(=O)CCn3nc(-c4cccn4C)cc32)cc1Cl,2.56%
6,O=S(=O)(c1ccc(-c2cc(C(F)(F)F)on2)s1)N1CCN(c2ccccc2F)CC1,9.91%
7,CC(=O)Nc1nonc1-c1nnc(SCC(=O)Nc2ccc(C)cc2)n1-c1ccccc1,-11%
8,COC(=O)c1ccccc1NC(=O)c1cc(-c2ccccc2O)no1,10.4%
9,Cc1cc(C(=O)Nc2ccc([N+](=O)[O-])cn2)cs1,active: 30.5%
10,COc1ccc(-c2cc(-c3ccccc3)c(C#N)c(SCC(O)CS(=O)(=O)Cc3ccc(Cl)cc3)n2)cc1 (stereo not given),2.32%
11,O=C(CS(=O)(=O)c1cccc2nsnc12)N1CCN(c2cccc(Cl)c2)CC1,7.37%
12,CCOC(=O)c1sc2cccc(F)c2c1S(=O)(=O)NCc1ccccc1Cl,13%
13,CCCN1CCN(c2ncnc3sc(C(=O)Nc4ccc(C(C)C)cc4)c(C)c23)CC1,-0.468%
14,CC(C)c1nn2c(=O)cc(COC(=O)c3ccc(NC(=O)COc4ccccc4)cc3)nc2s1,5.61%
15,O=C(NCCCN1CCN(c2ccccc2F)CC1)C1CCC(=O)N1C1CCCC1 (stereo not given),active: 66.4%
16,CCc1ccc(-n2c(=O)c3c4c(sc3n(CC(=O)c3ccc(F)cc3)c2=O)CCC4)cc1,-15.8%
17,COc1ccc(-c2ccc3c(N)c(C(=O)c4ccc(OC)c(OC)c4)sc3n2)cc1,20.7%
18,CCC(C)NC(=O)CCCN1C(=O)CCn2nc(-c3cccn3C)cc21 (stereo not given),-12.5%
19,CCc1cccc(NC(=O)COC(=O)c2cn(CC)c3nc(C)ccc3c2=O)c1,9.55%
20,COc1ccc(CNC(=O)c2ccc(-c3nc(CSc4ccccc4)c(C)o3)cc2)cc1OC,12.4%

row,Structure (SMILES),inhibition
1,CSc1ccc(C#N)cc1NC(=O)c1ccccc1C,active: 50.9%
2,COc1ccc(CNC(=O)CSCc2nc(-c3ccccc3C)oc2C)cc1,16.8%
3,CCCc1cc(=O)[nH]c(SCC(=O)N2CCN(c3ccccc3)CC2)n1,9.36% and active: 38.3%
4,COc1ccccc1N1CCN(C2CCCN(C(=O)c3ccoc3C)C2)CC1 (stereo not given),active: 30.6%
5,Cc1cccc(CCNC(=O)C2CCN(S(=O)(=O)c3c(C)nn(C)c3C)CC2)c1,active: 32.3%
6,Cc1ccccc1CNC(=O)c1ccc2c(c1)c(C)c(C)n2C,11.7%
7,CN(C)c1ccc(CNC(=O)c2ccc(Cn3c(SCc4ccccc4)nc4cccnc43)cc2)cc1,3.23%
8,Cc1ccc(Cl)cc1NC(=O)C1CCN(c2nnc(C)c3c(C)n(-c4ccccc4)nc23)CC1,7.87%
9,CCc1ccc(CNC(=O)c2cnc3sc(N4CCCC4)nn3c2=O)cc1,-7.36%
10,Cc1ccccc1Cn1nnc2c(=O)[nH]c(C3CCN(C(=O)c4ccc(F)cc4)CC3)nc21,-9.38%
11,Cc1cc(C)c(Cn2c3ccccc3c3cnn(CC(=O)NCc4cccs4)c(=O)c32)c(C)c1,7.63%
12,Cc1cc(C)n(-c2nc3ccccc3nc2Nc2ccc(N(C)C)cc2)n1,0.194%
13,CCOC(=O)c1ccc(NC(=O)c2cnc3c(-c4ccc(F)cc4)c(C)nn3c2C)cc1,-9.65%
14,COc1ccc(-n2nc(C(=O)Nc3ccccn3)c3c4ccccc4n(C)c3c2=O)cc1,6.18%
15,COc1ccccc1OC(C)C(=O)Nc1cccc(-c2nc3ccccc3s2)c1 (stereo not given),-9.44%
16,CCOc1ccc(-c2nc3c(c(SCC(=O)Nc4ccccc4C)n2)Cc2ccccc2O3)cc1,11%
17,Cc1ccccc1NC(=O)CC(NCc1cccnc1)C(=O)O (stereo not given),-8.36%
18,Cc1cc(C)cc(NC(=O)Cn2c(-c3cncs3)nc3ccccc32)c1,1.56%
19,Cc1cccc(N(C)c2nc3ccccc3c3nnc(C)n23)c1,8.45%
20,Cc1ccccc1N1CCN(S(=O)(=O)c2nnc(NC(=O)c3ccc(C(C)C)cc3)s2)CC1,6.02%
